Over roughly 16,000 sequences, “Z-score” has its median near -0.37; the highest 2% begin near 3.1. Some of the results follow.
These sequences were tested on RBM10 RRM1-ZnF-RRM2 (GST-tagged construct) (assay: RNAcompete 7-mer binding Z-score; higher = stronger binding preference).
Procedure: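 RNAcompete: 20 pmol GST-tagged RBM10 RNA-binding constructs were incubated with a designed RNA pool of about 241,000 sequences up to 41 nt (1.5 nmol) on glutathione beads for 30 min at 4 °C and washed. Bound RNAs were identified by microarray hybridisation. Each RNA 7-mer is scored by a one-sided Z-score of its enrichment, computed over probes that contain the 7-mer within longer pool sequences.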

Sequence	RNAcompete 7-mer binding Z-score
UCGCGCG	-0.391
AGUCACG	-0.235
GCCGAGG	0.505
CCCCCUU	-0.595
CGUAACC	-0.508
AUAAAUG	0.0641
UCACUCG	-0.548
UGAGCGU	0.323
CCACGAA	-0.544
CAGCAGU	-0.107
AGAAUCU	-0.77
CACGCCU	-0.683
AGCUUUC	-0.839
UGGUACU	0.195
UGUGGCA	0.632
AGGCUGA	0.297
GGGUCCC	0.625
UUAUCUC	-0.741
GCGUUGU	-0.162
UUAAAAA	-0.402
CACGGAG	0.712
UUACCGC	-0.701
UCCCAGU	-0.566

Sequence	RNAcompete 7-mer binding Z-score
GCCUGUA	-0.763
GCCGGAG	0.476
CAUUGCU	-0.683
UGGAACA	1.38
CAUAAAC	-0.511
UUGGCCG	-0.129
GACGCAG	0.137
GCUCUAA	-0.577
CAGACGG	0.935
AGUCAAU	-0.136
AUGCCGG	-0.136
CAUCUAU	-0.825
AGGGCGG	2.23
ACGGAUC	0.213
GUCCUAU	-0.599
GAUAAAG	1.26
UGCCCGC	-0.449
GUGGUAU	1.08
CCGAGAU	-0.347
UUCUUUA	-0.803
CUUUGUC	-0.821
UCCACAC	-0.621
GGUCUUG	-0.3

Sequence	RNAcompete 7-mer binding Z-score
CAAUUUG	-0.795
AUACUCU	-0.817
CACCACG	-0.154
AGGCCCU	-0.919
CGUUAUG	-0.347
UAAACGA	-0.231
UCUUGUA	-0.697
UCCGUAU	-0.704
CCUCAAU	-0.912
UGCAAUU	-0.355
UGGAGGC	2.16
ACAUUCC	-0.763
CUCCUCC	-0.606
AUUUCGA	-0.624
GUCGCCU	-0.562
AUUAUCG	-0.402
CCACGGG	1.23
GUCGUCU	-0.417
CGGCAGG	1.39
UCCACGU	-0.49
AGCAUGC	-0.286
GCUAUCU	-0.785
GAGCGUA	0.399

Sequence	RNAcompete 7-mer binding Z-score
AAUGCCC	-0.744
GAAUGUA	0.811
UAAUAAA	-0.679
ACUGGGC	0.927
CUUGGUU	-0.533
CUGACGA	-0.439
GAUAAUU	-0.278
AACCUAC	-0.777
CUCGUAC	-0.628
GCCAGGU	0.253
CAUUGUU	-0.592
CAAGUUA	-0.216
GGAAACC	0.8
AAGAAAA	0.104
ACCCUCU	-0.967
GCGUUAU	-0.125
GUGCCGU	-0.158
GACGACC	-0.453
ACCAGUG	0.213
AUAGCCG	-0.351
AAAAGUA	0.304
CCGGACU	-0.428
AUUGACA	-0.0707

Sequence	RNAcompete 7-mer binding Z-score
UUUUGCU	-0.836
GAAUGAA	0.425
CGGAACU	0.075
UGGACGC	0.548
GGUCUUA	-0.475
UGUGAGA	0.734
AGUCAGC	-0.238
UACUAUA	-0.42
ACUUCUG	-0.901
UCGAAAC	-0.533
ACAGGCG	1.43
UAUUCGU	-0.704
UCUAUCG	-0.744
CCCGUGC	-0.544
AUGGCAG	1.49
CCGAAUC	-0.963
GCGAGCA	1.09
GACCACG	-0.446
UGCUAAU	-0.635
GGAAAGC	2.01
GGCUUAG	0.414
GUGGGCC	1.58
AAGACCC	-0.803

Sequence	RNAcompete 7-mer binding Z-score
AGCAACC	-0.653
AUUCGAA	-0.475
CGGACAG	0.701
AUUGGUC	-0.0124
AGUAGCA	0.301
UCACCAG	-0.344
AUCUACG	-0.53
UGUGUGA	0.396
GACCGUG	-0.282
GCAAACU	-0.34
GUGAUAG	1.19
CUAGCUU	-0.865
GGAGACG	1.91
UAUUUUA	-0.846
UAUUUUC	-0.974
CCCCCCA	-0.38
CCCGCAC	-0.894
GGGUCUU	0.377
ACCAGGC	-0.136
GCGCAUG	0.301
CAAUACG	-0.0124
GUAUUGC	-0.329
CAAGAUG	-0.0343

Sequence	RNAcompete 7-mer binding Z-score
CAAAUCC	-0.737
CGUCUAG	-0.533
ACAUAAU	-0.577
GCACAAC	-0.318
UCGAGUA	-0.0488
GGAUUUA	0.607
UAGGAUU	0.774
CCAACAU	-0.643
CCAGAUG	-0.329
GGCCGUA	0.0786
GUGCAAA	0.483
UGUAUAA	-0.111
GCCACAG	-0.165
UUAGCAU	-0.406
CCCGUUU	-1.04
UGCCUAA	-0.836
UCUACCU	-0.879
GGUAAAU	1.4
CGUGCCU	-0.836
GUCAAAA	-0.209
ACCAAUU	-0.522
AUAGUGU	0.0568
ACCCACA	-0.843

Sequence	RNAcompete 7-mer binding Z-score
GCGCGAU	0.024
GGAGCGA	2.9
AGUUGUU	-0.431
UGAACAA	0.0459
GCGCGUG	0.661
CUUUCGA	-0.876
CCCGCGA	-0.887
UAAAGUC	-0.351
UCGCAUG	-0.526
UCGGCUA	-0.537
AGUCAGA	0.246
AUUCCUU	-0.879
GCGUCGA	-0.114
CUCUCAA	-0.741
ACUUAUU	-0.712
GGUUGUA	0.935
GGAUGUC	0.556
UACAAAA	-0.369
CCUAUAA	-0.595
CGGGCAU	0.836
GCGCGAA	-0.322
AGUAAAC	0.0532

Source: the supplement of paper PMC5499739
